Data from PubChem BioAssay AID624296 (National Center for Advancing Translational Sciences (NCATS), 2012).
Values joined by “and” are separate entries in the source; they are usually repeats but may differ in a detail not shown here. Equal entries are not always repeated. Screen size: about 350,000 compounds; about 9,900 (2.8%) were called active. This list was built around the results that the source calls inconclusive (neither active nor inactive); the mix of calls is not that of the screen. Calls follow the shape of the dose curve; as a rule, active = well fitted activation curve with a large enough effect; inconclusive = small, poorly fitted or top-dose-only effect; inactive = no such curve, though single readings can be large or run the other way. Potencies of inconclusive entries are doubtful fits and often do not repeat.
Potency is read from the fitted curve at half-maximal effect; tags tell the direction and shape of the fitted curve.

Test: A quantitative high throughput screen for small molecules that induce DNA re-replication in MCF 10a normal breast cells. Also: nearly all actives have a fitted effect of over 50% in size.
Details: MCF 10A DNA re-replication, Hoechst nuclear intensity, 48 h; series mostly up to 46.1 µM
For `CCOC(=O)c1c2c(c(=S)n(-c3ccccc3)c1N)CCC2`, the Potency was inconclusive: 29.1 µM [activator, single point]. For `CCOc1cc(CNc2ccc3c(c2)OCCO3)cc(Br)c1OCC`, the Potency was active: 2.59 µM. In the case of `CN1CCN(C(c2ccccn2)c2cc(Cl)c3cccnc3c2O)CC1` (configuration not stated), the Potency is reported as “inactive”. In the case of `CC(C)(C)c1ccc(-c2c(C#N)c(N)nc3c2CCCC3)s1`, the Potency is reported as inconclusive: 16.4 µM [activator, partial curve, poor fit]. In the case of `COc1ccc(OC)c(NC(=O)c2nc3ccccc3s2)c1`, the Potency is reported as inconclusive: 29.1 µM [activator, single point]. In the case of `CCN(CC)c1ccc(/C=C2\C(=O)N(c3nnc(C)c(=O)[nH]3)N=C2C)cc1`, the Potency is reported as inconclusive: 29.1 µM [activator, single point]. With `Cc1ccc(Nc2nc(N)nc(CN3CCc4ccccc4C3)n2)cc1` the Potency was inconclusive: 18.4 µM [activator, single point]. With `COc1ccc2c(c1OC)C(=O)OC2C1c2c(cc3c(c2OC)OCO3)CCN1C` (configuration not stated) the Potency was “inactive and inconclusive: 29.1 µM [activator, partial curve, poor fit]”. In the case of `COC(=O)c1ccc(CSc2nc3c(cnn3-c3ccc(Cl)cc3)c(=O)[nH]2)o1`, the Potency is reported as inconclusive: 29.1 µM [activator, single point]. In the case of `Cc1ccc(/C=N/c2sc3c(c2C(N)=O)CCCC3)o1`, the Potency is reported as inconclusive: 1.03 µM [activator, single point]. In the case of `CCc1ccc2c(CN(CC)Cc3nc4ccccc4c(=O)[nH]3)cc(=O)oc2c1`, the Potency is reported as “inactive”. With `Cc1c(-n2cc(C(=O)c3cc(F)ccc3O)cc(C#N)c2=O)c(=O)n(-c2ccccc2)n1C` the Potency was “inactive”. For `C1CCCCCC(NCCN2CCNCC2)CCCCC1`, the Potency was inconclusive: 29.1 µM [activator, partial curve, poor fit]. For `CC(=O)Nc1cccc(Oc2cc(C#N)c(C#N)cc2N2CCOCC2)c1`, the Potency was inconclusive: 8.2 µM [activator, partial curve, poor fit]. With `Cc1ccc(CNc2cc(C(=O)O)ccc2Cl)s1` the Potency was inconclusive: 6.51 µM [activator, single point]. With `Nc1ncnc(NCc2ccc(F)cc2)c1[N+](=O)[O-]` the Potency was inconclusive: 29.1 µM [activator, single point]. For `O=C(N/N=C/c1ccccn1)c1sc2ccccc2c1Cl`, the Potency was inconclusive: 3.66 µM [activator, single point]. In the case of `CCOC(=O)c1sc2cc([N+](=O)[O-])cc(SCC(C)C)c2c1N`, the Potency is reported as inconclusive: 29.1 µM [activator, single point]. In the case of `O=S(=O)(c1ccc2c(c1)OCCO2)N1CCCN(S(=O)(=O)c2c(F)cccc2F)CC1`, the Potency is reported as inconclusive: 29.1 µM [activator, single point]. In the case of `COc1ccc(-c2nc(SCC(=O)Nc3cc(C)on3)n[nH]2)cc1`, the Potency is reported as inconclusive: 6.51 µM [activator, single point]. With `CC(Oc1cccc(Cl)c1)C(=O)Nc1cc(Cl)ccc1N1CCOCC1` (configuration not stated) the Potency was inconclusive: 20.6 µM [activator, single point]. In the case of `COC(=O)c1c(NC(=O)CN2CCCc3ccccc32)sc(C)c1C`, the Potency is reported as active: 14.6 µM. With `O=C(N/N=C/C=C/c1ccccc1[N+](=O)[O-])c1cc(-c2ccccc2)n[nH]1` the Potency was inconclusive: 32.6 µM [activator, partial curve, poor fit]. With `Cc1ccc(C(C(=O)NC2CCCCC2)N(C(=O)Cc2c[nH]c3ccccc23)c2ccccc2)o1` (configuration not stated) the Potency was inconclusive: 16.4 µM [activator, single point]. For `COc1ccc(CCN2CCCn3c2nc2c3c(=O)n(CC(C)C)c(=O)n2C)cc1OC`, the Potency was “inactive”. For `O=C1CCC(O)CCN1CCSc1ccccc1` (configuration not stated), the Potency was “inactive”. With `COc1ccc(-c2n[nH]c(C)c2-c2ccc(OC)c(OC)c2)c(O)c1` the Potency was active: 16.4 µM. In the case of `Cc1[nH]n(-c2ccccc2)c(=O)c1CCOC(=O)c1ccc(C(F)(F)F)cc1`, the Potency is reported as inconclusive: 29.1 µM [activator, single point]. With `Cc1ccc2nc(SC(C)C(=O)NC3CCCc4ccccc43)[nH]c2c1` (configuration not stated) the Potency was inconclusive: 29.1 µM [activator, single point]. In the case of `COc1ccc(S(=O)(=O)Nc2ccccn2)cc1C(=O)Nc1ccccc1`, the Potency is reported as “inactive”. In the case of `CC12CCC(=O)N1C(C(=O)Nc1nc(-c3cc(F)ccc3F)cs1)CS2` (configuration not stated), the Potency is reported as inconclusive: 6.51 µM [activator, single point]. With `COc1ccccc1NC(=O)c1cc(S(=O)(=O)N2CCCCCC2)ccc1F` the Potency was “inactive”. For `COc1cc(OC)cc(-c2nnc(SCc3ccc(C(=O)O)cc3)o2)c1`, the Potency was inconclusive: 29.1 µM [activator, single point]. In the case of `O=C(C1CCCN(S(=O)(=O)c2ccc(Br)s2)C1)N1CCN(c2ccccc2)CC1` (configuration not stated), the Potency is reported as inconclusive: 32.6 µM [activator, partial curve, poor fit]. In the case of `C/C(N)=C(/C#N)C(=O)COC(=O)[C@@H](NC(=O)c1ccccc1Cl)C(C)C`, the Potency is reported as active: 2.06 µM. For `CC(=O)N1CCN(S(=O)(=O)c2cccc(C(=O)NCCC3=CCCCC3)c2)CC1`, the Potency was inconclusive: 14.6 µM [activator, partial curve, poor fit]. For `CC(=O)C1=NN(c2ccccc2)C(c2cccs2)N1c1ccc(N(C)C)cc1` (configuration not stated), the Potency was inconclusive: 8.2 µM [activator, partial curve, poor fit]. In the case of `Cc1c(C)n(C)c2ccc(C(=O)NCCCN3CCN(c4ccc(F)cc4)CC3)cc12`, the Potency is reported as “inactive”. In the case of `O=C(COC(=O)C1(c2ccccc2)CC1)NNC(=O)c1ccccc1`, the Potency is reported as inconclusive: 29.1 µM [activator, single point]. For `N#Cc1ccccc1NC(=O)C1SC(=Nc2ccccc2)C(C(=O)Nc2ccc(Cl)cc2)=C1N` (configuration not stated), the Potency was inconclusive: 29.1 µM [activator, single point]. With `C/C(=N\NC(=O)c1cc(C)oc1C)c1ccc2c(c1)OCO2` the Potency was inconclusive: 18.4 µM [activator, partial curve, poor fit]. For `CCOC(=O)c1c(Cc2ccc(Cl)cc2)c[nH]c1C`, the Potency was inconclusive: 4.61 µM [activator, full curve, poor fit]. With `Fc1cc(F)nc(NCc2ccccc2)n1` the Potency was “inactive”. With `Cc1cccc2sc(NC(=O)C3CCCN(S(=O)(=O)c4cccc5nonc45)C3)nc12` (configuration not stated) the Potency was “inactive”. With `Cn1c(NCc2ccc(Cl)cc2)nc2ccccc21` the Potency was “inactive”. With `Cc1ccc(CSc2nc3ccsc3c(=O)n2Cc2ccccn2)cc1` the Potency was inconclusive: 32.6 µM [activator, partial curve, poor fit]. With `COc1ccc(Cl)cc1NC(=O)[C@@]1(CC(=O)O)CC(/C=C/c2ccccc2)=NO1` the Potency was “inactive”. With `Cc1cc(C)nc(NN=CC2=C(N3CCOCC3)/C(=C/c3ccc(Cl)cc3)CC2)n1` the Potency was inconclusive: 20.6 µM [activator, single point]. In the case of `C/C(=N\NC(=O)c1cc(C)nc2ccccc12)c1cccs1`, the Potency is reported as inconclusive: 32.6 µM [activator, single point]. In the case of `C[C@H](NC(=O)c1nc[nH]c1C(=O)N[C@@H](CCCCNC(=O)OC(C)(C)C)C(=O)OC(C)(C)C)C(=O)OCc1ccccc1`, the Potency is reported as inconclusive: 18.4 µM [activator, partial curve, poor fit]. In the case of `O=C(CC1C(=O)NCCN1Cc1ccccc1)NCCCOc1cccnc1` (configuration not stated), the Potency is reported as inconclusive: 0.0021 µM [activator, full curve, poor fit]. In the case of `CCOc1ccccc1NS(=O)(=O)c1ccc(-c2cnc(C3CC3)o2)cc1`, the Potency is reported as inconclusive: 0.092 µM [activator, full curve, poor fit]. For `CCCn1cc(S(=O)(=O)c2ccc(OC)cc2)c(=O)c2cc(OC)ccc21`, the Potency was “inactive”. With `CCCn1c(=N)n(CC(=O)c2ccc(Cl)cc2)c2ccccc21` the Potency was inconclusive: 23.1 µM [activator, partial curve, poor fit]. In the case of `O=C(CSc1nc2ccc(Cl)cc2[nH]1)NCc1ccco1`, the Potency is reported as inconclusive: 29.1 µM [activator, single point]. In the case of `CCOc1cc(S(=O)(=O)NCc2ccc3c(c2)OCO3)c(C)cc1C`, the Potency is reported as “inactive”. In the case of `COC(=O)CSc1nnc(CNS(=O)(=O)c2ccc(Cl)cc2)n1C`, the Potency is reported as inconclusive: 29.1 µM [activator, single point]. For `O=C(O)c1ccn2c(C(=O)c3ccc(Cl)cc3)c(-c3ccccc3)cc2c1`, the Potency was inconclusive: 29.1 µM [activator, single point]. With `COC(=O)c1c(C)oc2ccc(N(C(=O)c3ccncc3)S(=O)(=O)c3ccc(C)cc3)cc12` the Potency was inconclusive: 0.58 µM [activator, full curve, poor fit]. With `S=C(Nc1ccccc1)N1CCN(C/C=C/c2ccccc2)CC1` the Potency was “inactive”. For `COc1ccc(Nc2nnc(SCC(=O)Nc3ccc4[nH]c(=O)[nH]c4c3)s2)cc1`, the Potency was inconclusive: 29.1 µM [activator, single point]. For `Cc1nc(N)nc(-c2ccccc2O)n1`, the Potency was “inactive”. With `N#Cc1cc([N+](=O)[O-])ccc1NC(=O)COC(=O)C1CC2CCCC(C1)C2=O` (configuration not stated) the Potency was “inactive”. With `COc1cccc(CSc2nc3sc(C)c(C)c3c(=O)n2Cc2ccco2)c1` the Potency was inconclusive: 16.4 µM [activator, partial curve, poor fit]. In the case of `CSCCC(=O)N1CCCC(N2CCN(c3cccc(C(F)(F)F)c3)CC2)C1` (configuration not stated), the Potency is reported as “inactive”. For `O=C1CCCN1c1ccc(S(=O)(=O)N2CCN(c3ccccc3)CC2)cc1`, the Potency was “inactive”. In the case of `Fc1cccc(-n2cc(-c3ccccc3)c3c(=S)nc[nH]c32)c1`, the Potency is reported as “inactive”.
